# Assay results: the supplement of paper PMC8728848
# This is one part of the list.
# B1: rCnSL-A (Clitocybe nebularis) (protein)
# chain: VNPNLPGPNDVFVGFRGTNNIVGAIYEKDGIKDTPLNNGADAEMGPGSYITDGLFTARIFASGSAGNNPGTTATVCKIYASGVQWRGAPKGYIPVAYFGNGPTAEQRRQTYLRTLGLPGTAIRFGNLNTNPGQGPTAPRQMVVPPGPLRSLLKASCFPAADTRLPQTLHYFEKRVDWNIITAADSQTWGH
# Legend:
# Experiment in all cases: glycan array binding signal (z-score within array); higher = stronger binding
# Conditions in all cases: glycan notation: IUPAC condensed, linker removed
# Fuc(a1-2)Gal = molecular target: Fuc(a1-2)Gal
# Procedure, shortened: (§1)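 Glycan array data were curated from 3228 arrays in the Consortium for Functional Glycomics database and kept only where the protein sequence was available. Glycan names were converted to IUPAC-condensed notation, and columns mapping to the same glycan were averaged. The binding signal is a within-array Z-score, averaged across arrays of the same protein sequence at different concentrations or buffers and across linkers. Negative Z-scores can be read as non-binding.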
# Fuc(a1-2)Gal(b1-3)GalNAc = molecular target: Fuc(a1-2)Gal(b1-3)GalNAc
# Procedure, shortened: as §1
# [1] = molecular target: Fuc(a1-2)Gal(b1-3)GalNAc(a1-3)[Fuc(a1-2)]Gal(b1-4)Glc
# Procedure, shortened: as §1
# [2] = molecular target: Fuc(a1-2)Gal(b1-3)GalNAc(a1-3)[Fuc(a1-2)]Gal(b1-4)GlcNAc
# Procedure, shortened: as §1
# [3] = molecular target: Fuc(a1-2)Gal(b1-3)GalNAc(b1-3)Gal
# Procedure, shortened: as §1
# [4] = molecular target: Fuc(a1-2)Gal(b1-3)GalNAc(b1-3)Gal(a1-4)Gal(b1-4)Glc
# Procedure, shortened: as §1
# [5] = molecular target: Fuc(a1-2)Gal(b1-3)GalNAc(b1-4)[Neu5Ac(a2-3)]Gal(b1-4)Glc
# Procedure, shortened: as §1
# Fuc(a1-2)Gal(b1-3)GlcNAc = molecular target: Fuc(a1-2)Gal(b1-3)GlcNAc
# Procedure, shortened: as §1
# [6] = molecular target: Fuc(a1-2)Gal(b1-3)GlcNAc(b1-2)Man(a1-3)[Fuc(a1-2)Gal(b1-3)GlcNAc(b1-2)Man(a1-6)]Man(b1-4)GlcNAc(b1-4)GlcNAc
# Procedure, shortened: as §1
# [7] = molecular target: Fuc(a1-2)Gal(b1-3)GlcNAc(b1-2)Man(a1-3)[Fuc(a1-2)Gal(b1-3)GlcNAc(b1-2)Man(a1-6)]Man(b1-4)GlcNAc(b1-4)[Fuc(a1-6)]GlcNAc
# Procedure, shortened: as §1
# [8] = molecular target: Fuc(a1-2)Gal(b1-3)GlcNAc(b1-3)Gal(b1-4)Glc
# Procedure, shortened: as §1
# [9] = molecular target: Fuc(a1-2)Gal(b1-3)GlcNAc(b1-3)GalNAc
# Procedure, shortened: as §1
# [10] = molecular target: Fuc(a1-2)Gal(b1-3)GlcNAc(b1-3)[Fuc(a1-2)Gal(b1-3)GlcNAc(b1-6)]GalNAc
# Procedure, shortened: as §1
# [11] = molecular target: Fuc(a1-2)Gal(b1-3)GlcNAc(b1-3)[Gal(b1-4)GlcNAc(b1-6)]Gal(b1-4)Glc
# Procedure, shortened: as §1
# [12] = molecular target: Fuc(a1-2)Gal(b1-3)GlcNAc(b1-3)[Neu5Ac(a2-6)Gal(b1-4)GlcNAc(b1-6)]Gal(b1-4)Glc
# Procedure, shortened: as §1
# [13] = molecular target: Fuc(a1-2)Gal(b1-3)GlcNAc6S
# Procedure, shortened: as §1
# [14] = molecular target: Fuc(a1-2)Gal(b1-3)[Fuc(a1-4)]GlcNAc
# Procedure, shortened: as §1
# [15] = molecular target: Fuc(a1-2)Gal(b1-3)[Fuc(a1-4)]GlcNAc(b1-2)Man(a1-3)[Fuc(a1-2)Gal(b1-3)[Fuc(a1-4)]GlcNAc(b1-2)Man(a1-3)]Man(b1-4)GlcNAc(b1-4)GlcNAc
# Procedure, shortened: as §1
# [16] = molecular target: Fuc(a1-2)Gal(b1-3)[Fuc(a1-4)]GlcNAc(b1-2)Man(a1-3)[Fuc(a1-2)Gal(b1-3)[Fuc(a1-4)]GlcNAc(b1-2)Man(a1-6)]Man(b1-4)GlcNAc(b1-4)[Fuc(a1-6)]GlcNAc(b1-4)[Fuc(a1-6)]GlcNAc
# Procedure, shortened: as §1
# [17] = molecular target: Fuc(a1-2)Gal(b1-3)[Fuc(a1-4)]GlcNAc(b1-3)[Fuc(a1-3)[Gal(b1-4)]GlcNAc(b1-6)]Gal(b1-4)Glc
# Procedure, shortened: as §1
# [18] = molecular target: Fuc(a1-2)Gal(b1-3)[Fuc(a1-4)]GlcNAc(b1-3)[Gal(b1-4)GlcNAc(b1-6)]Gal(b1-4)Glc
# Procedure, shortened: as §1
# Fuc(a1-2)Gal(b1-4)Glc = molecular target: Fuc(a1-2)Gal(b1-4)Glc
# Procedure, shortened: as §1
# Fuc(a1-2)Gal(b1-4)Glc6S = molecular target: Fuc(a1-2)Gal(b1-4)Glc6S
# Procedure, shortened: as §1
# Fuc(a1-2)Gal(b1-4)GlcNAc = molecular target: Fuc(a1-2)Gal(b1-4)GlcNAc
# Procedure, shortened: as §1
# [19] = molecular target: Fuc(a1-2)Gal(b1-4)GlcNAc(b1-2)Man
# Procedure, shortened: as §1
# [20] = molecular target: Fuc(a1-2)Gal(b1-4)GlcNAc(b1-2)Man(a1-3)[Fuc(a1-2)Gal(b1-4)GlcNAc(b1-2)Man(a1-6)]Man(b1-4)GlcNAc(b1-4)GlcNAc
# Procedure, shortened: as §1
# [21] = molecular target: Fuc(a1-2)Gal(b1-4)GlcNAc(b1-2)Man(a1-3)[Fuc(a1-2)Gal(b1-4)GlcNAc(b1-2)Man(a1-6)]Man(b1-4)GlcNAc(b1-4)[Fuc(a1-6)]GlcNAc
# Procedure, shortened: as §1
# [22] = molecular target: Fuc(a1-2)Gal(b1-4)GlcNAc(b1-2)[Fuc(a1-2)Gal(b1-4)GlcNAc(b1-4)]Man(a1-3)[Fuc(a1-2)Gal(b1-4)GlcNAc(b1-2)Man(a1-6)]Man(b1-4)GlcNAc(b1-4)GlcNAc
# Procedure, shortened: as §1
# [23] = molecular target: Fuc(a1-2)Gal(b1-4)GlcNAc(b1-3)Gal(b1-4)GlcNAc
# Procedure, shortened: as §1
# [24] = molecular target: Fuc(a1-2)Gal(b1-4)GlcNAc(b1-3)Gal(b1-4)GlcNAc(b1-2)Man(a1-3)[Fuc(a1-2)Gal(b1-4)GlcNAc(b1-3)Gal(b1-4)GlcNAc(b1-2)Man(a1-6)]Man(b1-4)GlcNAc(b1-4)GlcNAc
# Procedure, shortened: as §1
# [25] = molecular target: Fuc(a1-2)Gal(b1-4)GlcNAc(b1-3)Gal(b1-4)GlcNAc(b1-3)Gal(b1-4)GlcNAc
# Procedure, shortened: as §1
# [26] = molecular target: Fuc(a1-2)Gal(b1-4)GlcNAc(b1-3)GalNAc
# Procedure, shortened: as §1
# [27] = molecular target: Fuc(a1-2)Gal(b1-4)GlcNAc(b1-3)[Fuc(a1-2)Gal(b1-4)GlcNAc(b1-6)]GalNAc
# Procedure, shortened: as §1
# [28] = molecular target: Fuc(a1-2)Gal(b1-4)GlcNAc(b1-3)[Fuc(a1-3)[Gal(b1-4)]GlcNAc(b1-6)]Gal(b1-4)Glc
# Procedure, shortened: as §1
# [29] = molecular target: Fuc(a1-2)Gal(b1-4)GlcNAc(b1-6)GalNAc
# Procedure, shortened: as §1
# [30] = molecular target: Fuc(a1-2)Gal(b1-4)GlcNAc6S
# Procedure, shortened: as §1
# [31] = molecular target: Fuc(a1-2)Gal(b1-4)[Fuc(a1-3)]GlcNAc
# Procedure, shortened: as §1
# [32] = molecular target: Fuc(a1-2)Gal(b1-4)[Fuc(a1-3)]GlcNAc(b1-2)Man(a1-3)[Fuc(a1-2)Gal(b1-4)[Fuc(a1-3)]GlcNAc(b1-2)Man(a1-6)]Man(b1-4)GlcNAc(b1-4)[Fuc(a1-6)]GlcNAc
# Procedure, shortened: as §1
# [33] = molecular target: Fuc(a1-2)Gal(b1-4)[Fuc(a1-3)]GlcNAc(b1-2)[Fuc(a1-2)Gal(b1-4)[Fuc(a1-3)]GlcNAc(b1-4)]Man(a1-3)[Fuc(a1-2)Gal(b1-4)[Fuc(a1-3)]GlcNAc(b1-2)Man(a1-6)]Man(b1-4)GlcNAc(b1-4)GlcNAc
# Procedure, shortened: as §1
# [34] = molecular target: Fuc(a1-2)Gal(b1-4)[Fuc(a1-3)]GlcNAc(b1-3)Gal(b1-4)[Fuc(a1-3)]GlcNAc
# Procedure, shortened: as §1
# [35] = molecular target: Fuc(a1-2)Gal(b1-4)[Fuc(a1-3)]GlcNAc(b1-3)Gal(b1-4)[Fuc(a1-3)]GlcNAc(b1-3)Gal(b1-4)[Fuc(a1-3)]GlcNAc
# Procedure, shortened: as §1
# [36] = molecular target: Fuc(a1-2)Gal(b1-4)[Fuc(a1-3)]GlcNAc(b1-3)GalNAc
# Procedure, shortened: as §1
# [37] = molecular target: Fuc(a1-2)Gal(b1-4)[Fuc(a1-3)]GlcNAc(b1-3)[Neu5Ac(a2-6)Gal(b1-4)GlcNAc(b1-6)]Gal(b1-4)Glc
# Procedure, shortened: as §1
# [38] = molecular target: Fuc(a1-2)Gal3S(b1-4)GlcNAc
# Procedure, shortened: as §1
# [39] = molecular target: Fuc(a1-2)Gal6S(b1-3)GlcNAc
# Procedure, shortened: as §1
binder,measurement,setting,value
B1,glycan array binding signal (z-score),Fuc(a1-2)Gal,-0.225
same,glycan array binding signal (z-score),Fuc(a1-2)Gal(b1-3)GalNAc,-0.267
same,glycan array binding signal (z-score),[1],-0.137
same,glycan array binding signal (z-score),[2],-0.247
same,glycan array binding signal (z-score),[3],-0.099
same,glycan array binding signal (z-score),[4],-0.218
same,glycan array binding signal (z-score),[5],-0.229
same,glycan array binding signal (z-score),Fuc(a1-2)Gal(b1-3)GlcNAc,-0.278
same,glycan array binding signal (z-score),[6],-0.082
same,glycan array binding signal (z-score),[7],0.337
same,glycan array binding signal (z-score),[8],-0.234
same,glycan array binding signal (z-score),[9],-0.268
same,glycan array binding signal (z-score),[10],-0.034
same,glycan array binding signal (z-score),[11],-0.085
same,glycan array binding signal (z-score),[12],-0.158
same,glycan array binding signal (z-score),[13],-0.222
same,glycan array binding signal (z-score),[14],-0.177
same,glycan array binding signal (z-score),[15],1
same,glycan array binding signal (z-score),[16],-0.081
same,glycan array binding signal (z-score),[17],-0.24
same,glycan array binding signal (z-score),[18],0.015
same,glycan array binding signal (z-score),Fuc(a1-2)Gal(b1-4)Glc,-0.247
same,glycan array binding signal (z-score),Fuc(a1-2)Gal(b1-4)Glc6S,-0.207
same,glycan array binding signal (z-score),Fuc(a1-2)Gal(b1-4)GlcNAc,-0.258
same,glycan array binding signal (z-score),[19],-0.221
same,glycan array binding signal (z-score),[20],-0.099
same,glycan array binding signal (z-score),[21],0.58
same,glycan array binding signal (z-score),[22],0.163
same,glycan array binding signal (z-score),[23],-0.27
same,glycan array binding signal (z-score),[24],0.037
same,glycan array binding signal (z-score),[25],-0.195
same,glycan array binding signal (z-score),[26],-0.207
same,glycan array binding signal (z-score),[27],-0.154
same,glycan array binding signal (z-score),[28],-0.295
same,glycan array binding signal (z-score),[29],-0.157
same,glycan array binding signal (z-score),[30],-0.251
same,glycan array binding signal (z-score),[31],-0.165
same,glycan array binding signal (z-score),[32],0.126
same,glycan array binding signal (z-score),[33],0.039
same,glycan array binding signal (z-score),[34],-0.285
same,glycan array binding signal (z-score),[35],-0.017
same,glycan array binding signal (z-score),[36],-0.01
same,glycan array binding signal (z-score),[37],-0.246
same,glycan array binding signal (z-score),[38],-0.22
same,glycan array binding signal (z-score),[39],-0.243
